Sequences with one replicate were seen in a single cluster, so their values are uncertain.
Test system: ATP
Assay: switch fluorescence ratio, 500 uM ATP over buffer (Cy3 cluster intensity, sum of 5 cycles each) (fold (ratio)); higher = stronger signal-on switching upon ATP binding; sequences stand for … in TCGTCGGCAGCGTCAGATGTGTATAAGAGACAGTTTTTTTTTTTTTTTTTTTTTTTTT…TC
Conditions: aptamer strand: ATP DNA aptamer (quencher-CACCTGGGGGAGTATTGCGGAGGAAGG + anchor), 100 nM annealed; ATP concentration: 500 uM; one replicate
Summary of the method: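 For every switch-domain sequence, the fluorescence ratio is the mean of per-cluster values, each being summed target-cycle Cy3 intensity over summed buffer-cycle Cy3 intensity. Clusters outside 100-1000 RFU were excluded. On a modified Illumina MiSeq flow-cell, the Cy3-labelled switching-strand clusters were annealed to 100 nM quencher-labelled ATP aptamer, imaged in selection buffer and then after 15 min with 500 uM ATP at 22 °C. Five such cycles were run, with NaOH stripping and re-annealing between them.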
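Further: ATP exposure 15 min at 22 °C before imaging.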

| Sequence | switch fluorescence ratio |
| --- | --- |
| TGCCTGGAGG | 1.01 |
| CGTGGTGCGG | 0.971 |
| GACTCCTT | 0.999 |
| GAGAGTAGGC | 0.911 |
| ATACGGGGAC | 1.07 |
| AGCTGCTCTG | 0.975 |
| TGCGCCCATG | 1.04 |
| AACCAACCAT | 1.08 |
| ACCTTGAGGA | 0.982 |
| CCAAGGGATT | 0.992 |
| GTGGGTTATA | 0.949 |
| AACGGTCGTG | 0.963 |
| GTAAACTAGA | 0.951 |
| TGGATGGGTT | 0.958 |
| GATGAATGGT | 0.984 |
| TTTTATCTCC | 1.01 |
| ACTCATGTGG | 1.02 |
| AAACTGGGCC | 0.984 |
| CGGAAGACGA | 1.16 |
| AGTTTCTGAT | 0.978 |
| ATCGGACGGC | 1.08 |
| CGGTTCACAT | 1.02 |
| GCGGCTTGAG | 1.02 |

| Sequence | switch fluorescence ratio |
| --- | --- |
| GCAATTTCCG | 1.23 |
| ATTAAAGAGA | 0.936 |
| ACGGCCAGTA | 0.982 |
| TTTTGAGG | 0.966 |
| GTGCCCGTTT | 1.03 |
| AAGTCGGTAC | 1.25 |
| GCGGTTGATG | 0.977 |
| GCAATGTGAG | 1.28 |
| CGAAATGCAT | 0.973 |
| CCGCAGTCCT | 4.64 |
| TTTTCTACGT | 1.01 |
| GAGGCGGGAA | 0.983 |
| ATTTAGGTAA | 1.02 |
| CAGTCGTCGG | 1.01 |
| TACAGGTGGT | 1.44 |
| ATGCCCATCT | 1.03 |
| TGGTCACCGG | 1.03 |
| GATGAGCATT | 1 |
| TCCTGTGGCA | 1.18 |
| ATGCGTTGTG | 0.989 |
| TGGGCATTAC | 4.88 |
| ACGAGAGTTC | 1.05 |
| CGAATTTTCC | 1.06 |

| Sequence | switch fluorescence ratio |
| --- | --- |
| GCTTGCCGGG | 1.01 |
| CTGAGTGAGA | 0.979 |
| TTCGGCACGC | 1.33 |
| CAGATGTGAG | 1.01 |
| GAGGTTGTAA | 0.995 |
| TTTGTGCGTT | 1.02 |
| AATTGAAGCA | 1.06 |
| TACGGTGCTA | 1.04 |
| ACCGCCGTGC | 1.26 |
| GGATAGAAAA | 0.96 |
| GATAGCAAAT | 1.01 |
| TATGACACAA | 1 |
| TACCTTACAA | 1.23 |
| AAAGCTCAA | 0.997 |
| AATCATATCA | 1.04 |
| GATAATGCGA | 1.03 |
| TTGTAGAAG | 0.99 |
| CTCACAAAT | 1.02 |
| GGTGTGAAAG | 0.966 |
| ACTTGATAAT | 0.999 |
| CGGAAGCATA | 2.95 |
| CGTTAGGTTG | 0.988 |
| CCCGGATAGT | 1.07 |

| Sequence | switch fluorescence ratio |
| --- | --- |
| TTTATCCTGT | 1.01 |
| ACACTGAGGG | 0.984 |
| ACCGTTGCC | 0.982 |
| GTGGGATGTC | 0.969 |
| CTGTGCGGGG | 1.02 |
| GAATCCATAT | 1.01 |
| CAATGAGATC | 0.982 |
| TGCCAGTCAT | 0.991 |
| TATCACCTGC | 1.01 |
| CGCATGCG | 1.01 |
| GTTTCTGTTT | 0.966 |
| AAGTTAACCA | 1.01 |
| TTGGCGCCGC | 0.963 |
| GGTTTTCACG | 1 |
| ACTAGCGACA | 1.01 |
| ACAGGTTAAA | 0.995 |
| TCCTTAGGCA | 1.14 |
| CATGTTGCAG | 0.962 |
| GCGGGCCCAT | 0.966 |
| TGGTGTGGTA | 0.989 |
| ACGACCACTT | 1.39 |
| TAACTTTTAT | 1.04 |
| TGGCCACAAG | 0.977 |

| Sequence | switch fluorescence ratio |
| --- | --- |
| CTGTCTAATG | 1.01 |
| TGTGGGGTCC | 1.04 |
| CTTATCTCTA | 1.01 |
| CTTCGGGTG | 1.05 |
| GAAATGGGGC | 0.936 |
| AGCTTGCGG | 1.09 |
| ACAGAATTGC | 0.979 |
| CGTGCTTGCT | 1.01 |
| GATCTTTATT | 0.997 |
| AACCGAAAA | 1.05 |
| CCGGAGGATC | 1.54 |
| CCTCAAAATT | 1.11 |
| CAGTGACGGG | 1 |
| GAGTTCAAGA | 1.01 |
| TGTGAGTCGC | 0.997 |
| AACACCCTTT | 1.07 |
| GTTCTTGTTT | 0.968 |
| TAACAAGTTA | 0.944 |
| ACAACCCTG | 1.04 |
| GTGTGGGACT | 0.969 |
| CGTCATTCTT | 1.03 |
| TAATTGTCC | 1.01 |
| CGCATTCTGG | 1.09 |

| Sequence | switch fluorescence ratio |
| --- | --- |
| AGTGAATGGG | 0.964 |
| TCTAGACCAT | 0.982 |
| TCCTCAGAGA | 1.5 |
| CAGTTTGCTT | 0.977 |
| TCGCAACGGG | 1.16 |
| TTACGGCTTT | 1.05 |
| GGTTGACAGA | 1.01 |
| CCTTATATGC | 1.43 |
| ACTTGTTCTT | 1.03 |
| GTATAGTGCC | 0.97 |
| GACTAGGACT | 1.01 |
| TGGCTATCTT | 0.993 |
| TGATCTCAGG | 1.02 |
| TCTCATCACC | 1.02 |
| ATGGTCGGTT | 0.977 |
| GCCTTGTTAG | 1 |
| CAAATTACGA | 1.07 |
| TTCTGGTATT | 0.978 |
| ATACCTGCTC | 1.35 |
| TTACATTCAG | 1.03 |
| TGGATAAGG | 0.965 |
| GCATCTGGGC | 1.02 |
| AATGAGTAGG | 0.967 |

| Sequence | switch fluorescence ratio |
| --- | --- |
| GATAGTCCGT | 1.05 |
| GCTAACTCGC | 1.16 |
| GTTAATCCAC | 1.03 |
| TTACCCCGCA | 2.68 |
| GTATATGGAC | 1.04 |
| CGCGGTATCC | 1.07 |
| CGTACTGAGT | 1.03 |
| ACAGAGCCA | 1.04 |
| CCAGCACGGA | 1.05 |
| GTGTGCAAGA | 0.991 |
| GTTCTGCTGC | 1.03 |
| TGCTTCTATC | 1.03 |
| TGTATGTAGG | 1.01 |
| CGGCTGACGT | 1.01 |
| TTTACGCGGA | 1.02 |
| CGCTTTGGGC | 1 |
| TCGGGATATT | 1.06 |
| GAGAACGGAC | 0.988 |
| GGTATATCCA | 1.01 |

— the supplement of paper PMC10126150
